# Reference: the supplement of paper PMC9433436
# ± gives the standard deviation of the averaged measurements. The full ranking holds about 4,100 sequences; the median of “relative kcat/Km (krel) vs genomic leader AAAGAU” is about 1.7, and the highest 2% start at about 6.5. Only a part is listed here, and it is no random draw.
# Target: T1, E. coli RNase P holoenzyme (M1 P RNA + rnpA protein) (UniProt P0A7Y8)
# T1 sequence: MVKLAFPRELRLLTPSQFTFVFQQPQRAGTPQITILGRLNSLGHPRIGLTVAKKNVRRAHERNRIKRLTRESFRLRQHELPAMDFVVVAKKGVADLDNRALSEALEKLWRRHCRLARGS
# Test: relative kcat/Km (krel) vs genomic leader AAAGAU (relative (reference leader = 1)); higher = faster RNase P cleavage
# Method: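 HTS-Kin: a pool of ptRNA-Met (21C construct) with all 4096 combinations of 5' leader nucleotides N(-6) to N(-1) was processed in vitro by E. coli RNase P (P RNA + rnpA/C5 protein) under multiple-turnover conditions at 37 C, pH 8, 17.5 mM MgCl2. Residual substrate was Illumina-sequenced at several fractions reacted, and relative kcat/Km (krel) was computed by internal competition kinetics, calibrated to the genomic leader (AAAGAU = 1). The listed hexamer is the varied N(-6)..N(-1) leader (DNA letters), and it sits between a fixed 5' stem-loop flank (GCAUGCACGAAAGUGCGUGCUAUGAA) and the mature tRNA-Met starting GGCUACGUAGCUCAGUUGG. Two technical replicates are averaged.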
# [1] = fraction of substrate reacted: ~9-10% (9.79% repeat 1, 9.1% repeat 2)
# [2] = fraction of substrate reacted: ~13-16% (15.68% repeat 1, 13.17% repeat 2)
# [3] = fraction of substrate reacted: ~26-29% (28.66% repeat 1, 26.4% repeat 2)
Sequence,relative kcat/Km [1],relative kcat/Km [2],relative kcat/Km [3]
GAAATT,1.45 ± 0.96,1.17 ± 0.27,1.89 ± 0.47
ACAGGG,0.201 ± 0.11,–,1.03 ± 1
AATTCC,2.91 ± 1.4,2.15 ± 0.66,2.44 ± 0.66
CCTATG,–,0.685 ± 0.47,2.25 ± 0.41
CGAACT,1.21 ± 0.45,0.253 ± 0.058,1.36 ± 0.21
CACGGA,–,–,0.766 ± 0.63
CGGAAA,1.04 ± 0.18,1.09 ± 0.26,1.18 ± 0.27
TTCTAA,5.69 ± 2.2,–,–
TCTTGA,2.62 ± 1.2,3.33 ± 0.99,5.86 ± 2.8
TACCGC,3.15 ± 1.3,4.16 ± 0.76,6.03 ± 2.5
CATGCT,1.57 ± 0.78,0.422 ± 0.17,0.818 ± 0.32
GAACCA,–,0.958 ± 0.39,1.32 ± 0.75
AAGAAC,1.88 ± 0.69,2.08 ± 0.28,2.85 ± 0.47
AGTCGA,2.68 ± 0.35,3.65 ± 1.2,5.59 ± 2
GCACAT,1.01 ± 0.026,0.907 ± 0.12,2.61 ± 1.2
CCGCCT,1.45 ± 0.15,–,1.54 ± 0.38
AGAGAA,1.1225 ± 0.00048,2.03 ± 0.15,2.87 ± 0.86
AGAACT,0.853 ± 0.61,1.01 ± 0.59,1.58 ± 0.13
GATCAT,2.26 ± 0.96,3.62 ± 0.21,5.17 ± 1.7
TGGTAA,0.283 ± 0.25,1.03 ± 0.62,1.24 ± 0.82
ACTGGA,0.346 ± 0.015,–,–
ACTAAA,2.3 ± 1.6,2.14 ± 0.14,3.03 ± 0.69
TTCTGG,0.949 ± 0.38,0.819 ± 0.094,1.66 ± 0.46

Sequence,relative kcat/Km [1],relative kcat/Km [2],relative kcat/Km [3]
AAGCCA,1.15 ± 0.28,–,1.36 ± 0.77
ACTTAA,3.2 ± 1.5,3.22 ± 0.091,4.18 ± 1.5
GATTGA,2.31 ± 0.22,3.98 ± 1.1,4.96 ± 2.3
TCAACC,1.83 ± 0.38,1.66 ± 0.79,1.97 ± 0.24
TGGTTA,–,–,1.05 ± 0.53
AGGGCC,–,–,0.635 ± 0.26
TTCGAT,1.69 ± 0.22,2.71 ± 1.2,4.44 ± 2
AATGCG,–,–,0.487 ± 0.2
TGAGAG,0.464 ± 0.056,0.726 ± 0.6,1.32 ± 0.24
TTTAGT,–,–,2.46 ± 2.2
ACCCAG,–,1.4 ± 0.71,2.64 ± 0.17
TGTCGG,0.171 ± 0.1,0.567 ± 0.23,1.14 ± 0.26
AGAACG,–,0.074 ± 0.047,0.826 ± 0.79
CTCCGG,1.38 ± 0.85,0.916 ± 0.46,1.27 ± 0.5
TAGGCT,–,–,1.67 ± 1.1
CCTTCC,1.62 ± 0.022,1.51 ± 1.3,2.47 ± 0.27
ACCCCG,1.18 ± 0.35,–,2 ± 0.69
CGCGCA,1.86 ± 0.068,2.64 ± 0.045,3.31 ± 0.91
ATCATT,3.39 ± 1.4,4.551 ± 0.032,6.49 ± 2.6
ACTCGC,3.16 ± 0.92,3.16 ± 0.18,3.61 ± 0.64
TGTGCA,–,0.836 ± 0.2,1.71 ± 0.67
ATATCA,1.94 ± 0.96,2.19 ± 0.46,2.74 ± 1.5
CTTAGG,–,–,0.758 ± 0.54

Sequence,relative kcat/Km [1],relative kcat/Km [2],relative kcat/Km [3]
GGGCAC,1.49 ± 0.77,0.688 ± 0.52,1.72 ± 0.64
TAGCCC,1.1 ± 0.067,1.11 ± 0.71,2.1 ± 0.28
TTAATG,–,–,1.64 ± 0.45
CAGGTC,–,–,1.49 ± 1.1
TCACAA,–,2.19 ± 0.42,3.27 ± 0.98
GAAGCC,1.03 ± 0.013,0.755 ± 0.27,1.16 ± 0.23
CTTCGG,–,–,0.551 ± 0.24
TGCAGG,–,–,0.513 ± 0.1
AGGCGG,–,–,0.331 ± 0.095
CACCAC,3.5 ± 0.91,3.81 ± 1.5,5.55 ± 2.2
GGAATG,–,0.662 ± 0.44,1.94 ± 0.37
ATGTTC,1.44 ± 0.31,1.79 ± 0.7,2.71 ± 0.94
TAGATC,2.02 ± 0.84,2.35 ± 0.3,3.07 ± 1.1
CCTCCG,–,–,0.934 ± 0.35
GTGTGA,–,1.68 ± 0.93,1.79 ± 0.78
GAAGTT,1.12 ± 0.12,1.37 ± 0.051,1.22 ± 0.6
CGGCCA,0.559 ± 0.041,–,0.432 ± 0.16
TAACAT,2.61 ± 0.92,3.65 ± 0.29,5.06 ± 2.1
GGGATG,0.585 ± 0.41,–,0.779 ± 0.15
TAATGG,0.461 ± 0.18,–,–
TACAGA,4.52 ± 2,5.66 ± 0.35,8.3 ± 3
AGGCGC,–,1.07 ± 0.53,1.44 ± 0.24
AGCCCT,2.02 ± 0.54,1.22 ± 0.1,2.28 ± 0.39

Sequence,relative kcat/Km [1],relative kcat/Km [2],relative kcat/Km [3]
TTAATA,1.94 ± 0.59,2.09 ± 0.08,2.85 ± 1
AAATCT,1.86 ± 0.61,2.09 ± 0.095,2.8 ± 0.68
TGAAAA,2.47 ± 0.28,2.65 ± 0.25,4.23 ± 1.5
TCAGTT,1.27 ± 0.83,1.27 ± 0.28,1.6 ± 0.62
ATAGCG,–,–,1.1 ± 0.027
CGAGCA,1.21 ± 0.12,0.823 ± 0.73,1.44 ± 0.42
CTCTAC,4.76 ± 1.6,–,–
TCAGTC,1.48 ± 0.59,1.89 ± 0.021,2.62 ± 1.1
TGATGT,–,1.13 ± 1.1,1.37 ± 0.91
TGGGAC,–,0.674 ± 0.39,–
AATCGA,2.6 ± 0.85,2.463 ± 0.015,4.14 ± 1.9
ACGGCT,–,–,0.359 ± 0.16
GCCTTT,3.36 ± 1.7,3.71 ± 0.066,5.06 ± 1.7
ACGATA,2.03 ± 1.6,1.57 ± 0.086,1.27 ± 0.066
CCGTGA,2.27 ± 0.11,2.27 ± 0.85,3 ± 0.73
CCATAT,3.72 ± 1,4.23 ± 1.3,5.88 ± 2
AGACCT,1.34 ± 0.098,1.72 ± 0.086,2.41 ± 0.89
CGTCCC,1.61 ± 0.99,2.29 ± 0.97,2.43 ± 0.33
TGTTTG,–,0.726 ± 0.29,1.85 ± 0.1
TTCTCA,4.88 ± 2.1,5.74 ± 0.87,–
CCGGAT,1.2 ± 0.079,1.3 ± 0.8,1.21 ± 0.76
CAGCTG,–,–,1.15 ± 0.088
GGTGTT,–,1.36 ± 0.86,–

Sequence,relative kcat/Km [1],relative kcat/Km [2],relative kcat/Km [3]
CGTTCA,1.32 ± 0.27,1.73 ± 0.49,3.09 ± 1
TTTATC,2.68 ± 1.5,2.72 ± 0.24,3.47 ± 1.3
GGGAGT,0.595 ± 0.46,–,1.29 ± 0.75
TCTTGC,2.52 ± 0.3,4.14 ± 0.4,5.64 ± 1.7
ATACGC,2.11 ± 0.55,2.7 ± 0.22,3.63 ± 1.5
TTGTCT,1.72 ± 0.062,1.78 ± 0.32,3.01 ± 1.3
AGCTAT,4.03 ± 1.8,3.39 ± 1.1,5.23 ± 1.9
TTCTAC,5.32 ± 1.5,7.7 ± 1.3,10.6 ± 4.4
GAAGAA,2.23 ± 0.43,2.71 ± 0.3,2.76 ± 0.48
AGCATA,1.6 ± 0.75,1.84 ± 0.39,3.11 ± 1.2
TGGTTC,–,–,1.36 ± 0.94
TCAATC,1.69 ± 0.066,2.26 ± 0.77,3.06 ± 1.1
CGGACA,0.696 ± 0.1,0.739 ± 0.49,0.747 ± 0.23
CCACAG,–,–,1.21 ± 0.98
GCTTCG,–,–,1.29 ± 0.4
ACCCGC,3.03 ± 1.8,3.51 ± 0.3,4.87 ± 1.5
TCCCGC,4.31 ± 2.6,5.2 ± 0.32,7.32 ± 3.2
TGAGCC,–,1.41 ± 0.22,1.26 ± 0.39
CCGTAG,–,0.954 ± 0.089,2.6 ± 0.2
AGCAAC,2.29 ± 0.43,2.39 ± 0.28,3.71 ± 1
